Test results reported in PMC4336329 (PLoS ONE, 2015).
In all, about 310,000 compounds went through this assay and about 2,200 (0.71%) showed an effect of 50% or more. The effect is printed as a negative number. Some of the results follow.

What follows are molecules tested against human ether-à-go-go-related gene (hERG) potassium channel (human, UniProt Q12809) (assay: primary screen, population patch clamp on CHO cells stably expressing hERG).
human ether-à-go-go-related gene (hERG) potassium channel, sequence (Q12809 whole entry, looked up): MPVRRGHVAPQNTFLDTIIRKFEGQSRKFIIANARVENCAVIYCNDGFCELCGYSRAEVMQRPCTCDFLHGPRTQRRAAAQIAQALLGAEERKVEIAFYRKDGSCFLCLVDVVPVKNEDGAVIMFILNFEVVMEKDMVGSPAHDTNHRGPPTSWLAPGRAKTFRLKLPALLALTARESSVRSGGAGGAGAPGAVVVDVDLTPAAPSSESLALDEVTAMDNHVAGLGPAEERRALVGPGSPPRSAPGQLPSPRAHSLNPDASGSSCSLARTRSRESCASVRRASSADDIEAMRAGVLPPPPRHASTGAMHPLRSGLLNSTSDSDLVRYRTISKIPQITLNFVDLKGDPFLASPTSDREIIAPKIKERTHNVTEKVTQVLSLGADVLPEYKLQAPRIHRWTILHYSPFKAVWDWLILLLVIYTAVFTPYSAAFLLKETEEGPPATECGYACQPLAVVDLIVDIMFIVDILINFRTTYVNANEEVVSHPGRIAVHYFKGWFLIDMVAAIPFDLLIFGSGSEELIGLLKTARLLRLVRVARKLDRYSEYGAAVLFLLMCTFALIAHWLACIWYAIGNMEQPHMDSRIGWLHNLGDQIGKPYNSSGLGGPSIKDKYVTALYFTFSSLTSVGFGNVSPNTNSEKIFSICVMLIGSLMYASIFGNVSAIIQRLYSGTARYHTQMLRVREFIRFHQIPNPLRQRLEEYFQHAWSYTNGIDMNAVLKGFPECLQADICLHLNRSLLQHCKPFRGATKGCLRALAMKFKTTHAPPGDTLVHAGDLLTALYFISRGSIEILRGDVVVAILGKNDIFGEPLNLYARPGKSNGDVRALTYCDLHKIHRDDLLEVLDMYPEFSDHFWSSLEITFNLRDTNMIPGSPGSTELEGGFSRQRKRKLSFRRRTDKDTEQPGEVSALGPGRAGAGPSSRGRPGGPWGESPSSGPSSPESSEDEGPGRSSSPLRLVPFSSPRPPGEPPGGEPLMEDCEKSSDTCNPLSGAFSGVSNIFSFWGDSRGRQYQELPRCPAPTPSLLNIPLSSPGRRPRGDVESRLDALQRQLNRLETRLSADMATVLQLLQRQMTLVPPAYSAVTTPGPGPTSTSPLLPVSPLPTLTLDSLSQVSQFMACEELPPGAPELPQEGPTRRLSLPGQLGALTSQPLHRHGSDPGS
`COc1cccc(-c2cc(C(=O)NCCN3CCOCC3)no2)c1` was tested, and the “hERG current change (%, negative = inhibition) at 1uM” value was 1.57%. `COc1cccc2c(C)nc(Nc3nc(CSc4nnc(C)s4)cc(=O)[nH]3)nc12` was tested, and the “hERG current change (%, negative = inhibition) at 1uM” value was 9.24%. With `Cn1c(C(=O)OC(C(=O)NC(C)(C)C)c2cccnc2)cc2sccc21` (centres unmarked) the “hERG current change (%, negative = inhibition) at 1uM” value was -8.37%. `Cc1ccc2nc3c(cc(C#N)c(=O)n3-c3nccs3)c(=O)n2c1` was tested, and the “hERG current change (%, negative = inhibition) at 1uM” value was 17.4%. `CCOc1ccc(N(CC(=O)N2CCOCC2)S(=O)(=O)c2ccc(F)cc2)cc1` was tested, and the “hERG current change (%, negative = inhibition) at 1uM” value was -3.89%. `COc1ccc(C(=O)N2CCNC(=O)C2CC(=O)Nc2ccc(C)cc2)cc1` (centres unmarked) was tested, and the “hERG current change (%, negative = inhibition) at 1uM” value was 19.3%. For `O=C(O)c1ccccc1-c1ccccc1C(=O)Nc1ccccc1Br`, the “hERG current change (%, negative = inhibition) at 1uM” value was 13.3%. `COc1ccc(/C=N/NC(=O)CC(=O)NCc2cccnc2)cc1` was tested, and the “hERG current change (%, negative = inhibition) at 1uM” value was 4.15%. In the case of `Cc1oc(-c2ccc(Cl)cc2)nc1CN1CCCC(C(=O)N2CCOCC2)C1` (centres unmarked), the “hERG current change (%, negative = inhibition) at 1uM” value is reported as -32.9%. For `CC12CCC(C(=O)N(CSC(=S)N/N=C\c3ccccc3O)C1=O)C2(C)C` (centres unmarked), the “hERG current change (%, negative = inhibition) at 1uM” value was 16.5%. For `CCC/C(=N\NC(=O)c1cccc(C)c1)c1ccccc1`, the “hERG current change (%, negative = inhibition) at 1uM” value was 13.3%. With `Cn1c(=O)c2c(nc(N/N=C/c3ccco3)n2C)n(C)c1=O` the “hERG current change (%, negative = inhibition) at 1uM” value was 5.19%. In the case of `CC(NC(=O)c1cc(-c2ccc3c(c2)OCO3)nc2ccccc12)C(C)(C)C.Cl` (centres unmarked), the “hERG current change (%, negative = inhibition) at 1uM” value is reported as -5.28%. With `CNC(=O)Oc1ccc2c(c1)[C@]1(C)CCN(C)[C@@H]1N2C.O=C(O)c1ccccc1O` the “hERG current change (%, negative = inhibition) at 1uM” value was 11.7%. With `COc1cc(NC(=O)COC(=O)CNC(=O)c2cc(C)cc(C)c2)c(C)cc1[N+](=O)[O-]` the “hERG current change (%, negative = inhibition) at 1uM” value was -1.75%. For `COc1ccc(NC(=O)CN(C)C(=O)CNC(=O)c2ccc3c(c2)OCO3)cc1`, the “hERG current change (%, negative = inhibition) at 1uM” value was 11.4%. `O=C(COC(=O)c1cccc(N2C(=O)c3ccccc3C2=O)c1)Nc1ccccc1` was tested, and the “hERG current change (%, negative = inhibition) at 1uM” value was 18.2%. For `CC1(C(=O)O)Oc2cccnc2NC1=O` (centres unmarked), the “hERG current change (%, negative = inhibition) at 1uM” value was 10.9%. In the case of `COC(=O)c1cc(-c2cccs2)nn1-c1ccccc1`, the “hERG current change (%, negative = inhibition) at 1uM” value is reported as 6.83%. For `Cc1ccc(C(=O)N2CCCC(c3ccc(Cl)cc3)=N2)cc1`, the “hERG current change (%, negative = inhibition) at 1uM” value was 9.14%. `COc1ccc(C(=O)Nc2cc(OC)cc3cccnc23)cc1` was tested, and the “hERG current change (%, negative = inhibition) at 1uM” value was 15.2%. `Cc1ccc(C2=NOC3(CC(=O)N(c4ccccc4)C3=O)C2)cc1` (centres unmarked) was tested, and the “hERG current change (%, negative = inhibition) at 1uM” value was 13.7%. `CCOc1ccccc1NC(=O)COC(=O)C1CC(=O)N(c2c(C)cccc2C)C1` (centres unmarked) was tested, and the “hERG current change (%, negative = inhibition) at 1uM” value was 11.8%. With `COc1ccc(C(CNc2ccc(S(C)(=O)=O)cc2[N+](=O)[O-])N(C)C)cc1OC` (centres unmarked) the “hERG current change (%, negative = inhibition) at 1uM” value was -3%. For `N#CCCn1cc(C(=O)Nc2ccc(C(=O)O)cc2)c(-c2cccs2)n1`, the “hERG current change (%, negative = inhibition) at 1uM” value was 12.9%. `Cl.c1ccc(CN2CCC3(CCCc4ccccc43)CC2)cc1` was tested, and the “hERG current change (%, negative = inhibition) at 1uM” value was -23.2%. In the case of `Cn1c(OCc2cccnc2)nc2c1c(=O)n(Cc1ccc(Cl)cc1)c(=O)n2C`, the “hERG current change (%, negative = inhibition) at 1uM” value is reported as -28%. In the case of `CCOC(=O)N1CCC(=NNc2nc(C)cc(=O)[nH]2)CC1`, the “hERG current change (%, negative = inhibition) at 1uM” value is reported as 24.3%. `Cc1ccc(Nc2nc(Nc3ccc(C)cc3)nc(SC3=NCCS3)n2)cc1` was tested, and the “hERG current change (%, negative = inhibition) at 1uM” value was -0.759%. In the case of `Cc1ccc(N(CC(=O)N2CC(=O)Nc3ccccc32)S(=O)(=O)c2ccc3c(c2)OCCO3)cc1`, the “hERG current change (%, negative = inhibition) at 1uM” value is reported as 21%. For `CCOc1ccc(NC(=O)CN(C)C(=O)c2ccccc2-n2cnnn2)cc1OCC`, the “hERG current change (%, negative = inhibition) at 1uM” value was 13.4%. With `COCCOC(=O)c1c(NC(=O)COC(=O)Cc2cccc(OC)c2)sc(C(N)=O)c1C` the “hERG current change (%, negative = inhibition) at 1uM” value was 15.4%. In the case of `O=C(/C=C/c1ccccc1)Nn1cnnc1`, the “hERG current change (%, negative = inhibition) at 1uM” value is reported as 9.79%. For `CCOC(=O)c1c(C)n(C)c2ccc(OC)c(NC(=O)CN3CCN(C4CCCCC4)CC3)c12`, the “hERG current change (%, negative = inhibition) at 1uM” value was -3.13%. In the case of `CCn1nc(C(=O)NCCc2ccc(S(N)(=O)=O)cc2)c2ccccc2c1=O`, the “hERG current change (%, negative = inhibition) at 1uM” value is reported as 1.53%. In the case of `COc1ccc(C(=O)N(Cc2ccco2)C(C(=O)NC2CCCC2)c2ccc(O)cc2)cc1OC` (centres unmarked), the “hERG current change (%, negative = inhibition) at 1uM” value is reported as -7.06%. For `CCOc1ccc2nc(NS(=O)(=O)Cc3ccccc3)sc2c1`, the “hERG current change (%, negative = inhibition) at 1uM” value was 3.46%. `Cc1ccc(-c2nc(CS(=O)CC(=O)NC3CCCCC3)c(C)o2)cc1` (centres unmarked) was tested, and the “hERG current change (%, negative = inhibition) at 1uM” value was 15.5%. With `O=C(CSc1nnc(C2CC2)n1Cc1ccccc1)NCc1ccccc1` the “hERG current change (%, negative = inhibition) at 1uM” value was 5.84%. `COC(=O)/C(=N\Nc1ccc(Cl)cc1)Sc1nnc(-c2ccc(OC)cc2)n1C` was tested, and the “hERG current change (%, negative = inhibition) at 1uM” value was 2.29%. In the case of `COC(=O)c1sccc1NC(=O)Nc1ccccc1F`, the “hERG current change (%, negative = inhibition) at 1uM” value is reported as -0.135%. For `COc1ccccc1N1C(=O)CC(Nc2ccc(N3CCOCC3)cc2)C1=O` (centres unmarked), the “hERG current change (%, negative = inhibition) at 1uM” value was 7.94%. In the case of `O=c1[nH]c2ccccc2c(=O)n1Cc1ccccc1`, the “hERG current change (%, negative = inhibition) at 1uM” value is reported as 14.5%. With `CCN(CC)C(=O)C(=O)Nc1cccc(Br)c1` the “hERG current change (%, negative = inhibition) at 1uM” value was 4.57%.
